Test results as given in PubChem BioAssay AID662 (National Center for Advancing Translational Sciences (NCATS), 2007).
Out of some 71,000 compounds screened, about 1,800 (2.5%) were called active. This list was built around the results that the source calls inconclusive (neither active nor inactive); the mix of calls is not that of the screen. Calls come from the whole dose curve; as a rule, active = well fitted activation curve with a large enough effect in the signal ratio, with a control signal flat (not every such curve was filed as active); inconclusive = small, poorly fitted or top-dose-only effect, or effect the other way, or a change in a side signal; inactive = flat fitted curve, though single readings scatter; the % refers to the signal ratio. Where the call is inconclusive, the potency comes from a doubtful curve fit.

Experiment: Cell signaling CRE-BLA (Fsk stim); for activity change, negative = inhibition: % of control where 0% means no effect
Conditions: CHO CRE-bla reporter (cAMP response element driving beta-lactamase), forskolin EC10, beta-lactamase ratio; activity change, negative = inhibition: at 38.2 µM (top of the series) unless noted
Method in brief: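 AC50 values, positive or negative, reflect shifts in EC10 NKH 477-induced CRE-bla reporter activity in CHO cells. Incubation lasted 3 h at 37 °C before CCF4 substrate (2 h, room temperature) and ratiometric 460/530 nm reading.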
Potency is the fitted concentration of half-maximal effect; tags give direction and shape of the fitted curve.

Compound | activity change, negative = inhibition | Potency
CC1(C)NC(=O)N(CCCCOc2cccc(C(F)(F)F)c2)C1=O | inconclusive: -22.1% | 
Brc1ccc2c(c1)c1nc3ccccc3nc1n2CCN1CCOCC1 |  | active: 12.6 µM
Cc1[nH]c(N)nc(=S)c1CCC(=O)O | inconclusive: 2.77% [at 7.6 µM] | 
c1cc2c(cc1C(N1CCNCC1)N1CCNCC1)OCO2 | inactive: 7.24% [at 7.6 µM] | 
Cc1ccc(CNc2oc(-c3ccco3)nc2C#N)cc1 |  | active: 10 µM
N#CC1=C(N)OC2=C(C(=O)CCC2)C1c1ccncc1 (configuration not stated) | inactive: -3.87% | 
CCOc1ccc(NC(=O)CN2CCN(S(=O)(=O)c3ccc(Cl)cc3)CC2)cc1 | inconclusive: -10.6% | 
COc1ccc(CNc2ncncc2-c2cccnc2)c(OC)c1 |  | inconclusive: 15.8 µM [rising, single point]
Cc1cnc(CNc2nc(-c3ccccc3C(F)(F)F)nc3ccccc23)cn1 | inconclusive: 21.2% | 
COC(=O)CSc1nc2ccccc2nc1SCC(=O)OC | inconclusive: 15.6% | 
Cc1c(NC(=O)OCCSc2nc(N(C)C)nc(N(C)C)n2)sc(=S)n1C |  | inconclusive: 10 µM [rising, partial curve]
O=c1cc(CO)oc(C(Nc2ccccn2)c2ccc(C(F)(F)F)cc2)c1O (configuration not stated) | inconclusive: -20.3% | 
Cn1c2ccc(CC(=O)O)cc2c2cc(CC(=O)O)ccc21 | inactive: -5.43% | 
Cc1cc(C)c(-c2cc(C(F)(F)F)no2)c(=O)[nH]1 | inactive: 6.57% | 
Clc1ccc(Cn2ncc3c(N4CCCC4)ncnc32)cc1 |  | active: 10 µM
Cc1ccc(C)n1NC(=O)c1cccs1 | inconclusive: -23.5% | 
CCOC(=O)N1CCC(NC(=O)c2cc3c(-c4cccc(OC)c4)nn(C)c3s2)CC1 |  | inconclusive: 10 µM [rising, single point]
CN(C)CCn1c(C(=O)O)cc2ccccc21 | inactive: -1.12% | 
CCc1c(C)c2c(C)nn(-c3ccccc3)c2[nH]c1=O |  | inconclusive: 5.01 µM [rising, single point]

Compound | activity change, negative = inhibition | Potency
Cc1ccc(C)c(OCCCN2CCCC2)c1 | inconclusive: -0.636% | 
CCOC(=O)CSc1nc2c(c(=O)n(C)c(=O)n2C)n1Cc1ccccc1F |  | inconclusive: 10 µM [rising, single point]
COc1ccc(-c2ccc(-c3noc(-c4ccccc4)n3)c(OC)n2)cc1 | inconclusive: 26.6% | 
CSc1nc(SC)c2c3c(oc2n1)COC(C)(C)C3 | inactive: -0.304% | 
Cc1cc(C)nc(SCC(=O)Nc2ccc(Br)cn2)n1 | inconclusive: 23.4% | 
Clc1ccccc1-c1cncnc1NCc1cccs1 | inactive: 0.778% | 
CCOC(=O)n1ccn(C)c1=S | inactive: -4.24% [at 17.1 µM] | 
COC(=O)c1cc(NC(=O)C2COc3ccccc3O2)cc(C(=O)OC)c1 (configuration not stated) |  | inconclusive: 25.1 µM [rising, single point]
CN1CCCCCC1=NC1=C(C#N)CCCC1 | inactive: -1.63% | 
CCC(c1nc2ccccc2c(=O)n1CCCn1ccnc1)N1C(=O)c2ccccc2C1=O (configuration not stated) |  | inconclusive: 10 µM [rising, partial curve]
CCOc1ccc(CCNc2cc(C)nc3ncnn23)cc1OCC | inconclusive: 27.2% | 
Cc1cc(C(F)(F)F)nn1CC(=O)Nc1cccnc1 | inconclusive: 12.1% | 
O=C(Nc1cc(N2CCOCC2)ncn1)Nc1cccc2ccccc12 |  | inconclusive: 1.58 µM [rising, single point]
O=C(CN1CCOCC1)N1CCN(S(=O)(=O)c2ccccc2)C1c1ccccc1 (configuration not stated) | inconclusive: 7.31% | 
CC1CCN(S(=O)(=O)N2CCC(C(=O)N3CCC(N(C)CC4CCCO4)CC3)CC2)CC1 (configuration not stated) | inactive: 1.27% | 
CCCCn1c(SCC(=O)NCc2ccco2)nc2ccc(N3CCOCC3)cc2c1=O | inactive: 10.7% | 
CC(C)CN1CCC2(CC1)CCN(C(=O)c1csnn1)CC2 | inactive: -4.15% | 
NC1=NC(c2ccccc2Cl)n2c(nc3ccccc32)N1 (configuration not stated) | inconclusive: -20.6% | 
N#CC(C(=O)Nc1cccc(Cl)c1)=C1Nc2ccccc2N1 | inactive: 13.9% | 

Compound | activity change, negative = inhibition | Potency
COc1nc(NCC(C)C)nc(Oc2ccc(OCc3ccccc3)nn2)n1 | inconclusive: 22.7% | 
O=c1c2ccccc2nnn1CSc1ncnc2ccccc12 | inconclusive: -20.5% | 
NC(=O)CSc1cn(CCNC(=O)c2cccs2)c2ccccc12 |  | inconclusive: 10 µM [rising, partial curve]
CN1C(=O)NC(c2ccccc2)C2=C1CN(Cc1ccco1)C2=O (configuration not stated) | inactive: -3.76% | 
Cc1cccn2c(=O)c3cc(C(=O)N4CCN(c5ccccc5)CC4)n(C)c3nc12 | inconclusive: 122% | 
c1cncc(CNc2nc(-c3ccc4c(c3)OCO4)nc3ccccc23)c1 |  | active: 12.6 µM
COC(=O)c1cc(COC(=O)c2ccc(OC)c(S(=O)(=O)N3CCCC3)c2)oc1C |  | inconclusive: 12.6 µM [rising, single point]
O=C(CN(c1ccc(F)cc1)S(=O)(=O)c1ccc2c(c1)OCCO2)NCc1ccccn1 | inactive: 3.45% | 
COc1cc(Br)cc(CN2CCN(C/C=C/c3ccccc3)CC2)c1O | inconclusive: -20.2% | 
CSc1nc2oc3c(c2c2nncn12)CC(C)(C)SC3 |  | inconclusive: 10 µM [rising, partial curve]
Cc1cc(C)c2nc(C(F)(F)F)nc(N3CC(C)OC(C)C3)c2c1 (configuration not stated) |  | inconclusive: 25.1 µM [rising, single point]
Cc1ccc(S(=O)(=O)NCc2ccc(C(=O)NCCCN3CCN(C)CC3)cc2)cc1 | inconclusive: -14.8% | 
O=C(Cn1cnnn1)Nc1ccccc1Cc1ccccc1 |  | inconclusive: 5.01 µM [falling, single point]
Cc1ccc(NC2=NC(C(=O)Nc3ccc(C)c(C)c3)CC(=O)N2)cc1 (configuration not stated) | inconclusive: -6.02% | 
COc1ccc(-c2onc3ccc(Cl)cc23)cc1OC |  | inconclusive: 10 µM [rising, partial curve]
O=C(NCC1CCS(=O)(=O)C1)NCC1CCS(=O)(=O)C1 (configuration not stated) | inconclusive: -10.5% | 
CCC1CCCN1Cn1cnc2c([nH]c3ccc(OC)cc32)c1=O (configuration not stated) | inactive: 0.13% | 
c1ccc2c(c1)nc(NCCN1CCOCC1)c1nncn12 | inactive: 13.4% | 
Cn1c(=O)c2c(nc(N3CCCCC3)n2CCCNC2=NCCCC2)n(C)c1=O | inconclusive: -14.6% | 
